Out of some 310,000 compounds screened, about 14,000 (4.5%) showed an effect of 50% or more. Effects have a minus sign here. Some of the results follow.
Target: human ether-à-go-go-related gene (hERG) potassium channel (human, UniProt Q12809)
Experiment: primary screen, population patch clamp on CHO cells stably expressing hERG
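Also: peak tail current of the secondary pulse compared with the same well before compound.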

Chain of human ether-à-go-go-related gene (hERG) potassium channel (Q12809 whole entry, looked up): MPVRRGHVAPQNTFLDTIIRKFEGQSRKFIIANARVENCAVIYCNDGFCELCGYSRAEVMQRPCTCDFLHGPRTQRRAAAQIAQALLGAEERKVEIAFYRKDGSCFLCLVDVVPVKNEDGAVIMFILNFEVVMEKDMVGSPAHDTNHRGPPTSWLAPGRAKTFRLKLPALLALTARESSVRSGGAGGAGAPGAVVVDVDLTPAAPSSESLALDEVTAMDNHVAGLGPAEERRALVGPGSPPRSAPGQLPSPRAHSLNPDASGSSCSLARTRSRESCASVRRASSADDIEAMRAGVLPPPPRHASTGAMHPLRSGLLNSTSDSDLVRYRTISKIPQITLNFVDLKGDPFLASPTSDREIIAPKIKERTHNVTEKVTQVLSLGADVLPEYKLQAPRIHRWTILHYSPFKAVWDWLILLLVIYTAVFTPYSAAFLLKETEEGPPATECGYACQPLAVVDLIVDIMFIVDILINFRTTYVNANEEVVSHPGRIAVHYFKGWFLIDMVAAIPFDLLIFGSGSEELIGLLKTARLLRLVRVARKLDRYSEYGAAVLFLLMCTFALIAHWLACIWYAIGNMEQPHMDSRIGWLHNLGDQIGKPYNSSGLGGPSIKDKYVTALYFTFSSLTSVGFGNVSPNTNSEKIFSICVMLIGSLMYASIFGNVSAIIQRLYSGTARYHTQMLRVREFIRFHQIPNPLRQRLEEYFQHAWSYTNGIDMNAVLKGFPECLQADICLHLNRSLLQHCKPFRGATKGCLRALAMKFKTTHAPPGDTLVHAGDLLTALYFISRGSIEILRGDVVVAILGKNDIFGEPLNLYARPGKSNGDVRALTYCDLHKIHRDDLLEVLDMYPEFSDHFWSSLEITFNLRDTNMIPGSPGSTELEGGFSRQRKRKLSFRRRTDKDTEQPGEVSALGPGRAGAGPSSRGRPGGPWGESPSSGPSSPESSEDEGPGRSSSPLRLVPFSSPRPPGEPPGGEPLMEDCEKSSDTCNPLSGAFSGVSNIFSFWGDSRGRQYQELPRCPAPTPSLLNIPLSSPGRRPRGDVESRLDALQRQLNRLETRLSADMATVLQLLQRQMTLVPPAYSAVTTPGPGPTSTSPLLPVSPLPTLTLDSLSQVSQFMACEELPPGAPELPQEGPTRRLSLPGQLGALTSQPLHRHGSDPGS

Compound | hERG current change (%, negative = inhibition) at 10uM [%]
Cc1ccc(S(=O)(=O)N2CCN(C(=O)c3cc(=O)[nH]c4ccccc34)CC2)c(C)c1 | -22.9
CC(C)c1ccc(NC(=O)NCc2ccc(F)cc2)cc1 | 10.6
O=C(CCNS(=O)(=O)c1cccs1)NCc1ccccc1 | 49.9
O=C(CSc1nc2c(cnn2-c2cccc(Cl)c2)c(=O)[nH]1)NCC1CCCO1 (centres unmarked) | 10.2
O=C1CCCc2c1[nH]c1ccc(Cl)cc21 | 7.86
Cc1cc(Oc2nc3c(C)cccn3c(=O)c2/C=C(\C#N)S(=O)(=O)c2ccc(Cl)cc2)ccc1Cl | -10.7
COC(=O)CC1C(=O)NCCN1C(=O)CSc1nnnn1-c1ccc(OC)cc1 (centres unmarked) | 17.7
Cc1cccnc1NC(=O)CNC(=O)C12CC3CC(CC(C3)C1)C2 | 0.0801
COc1ccc(N2CCN(c3ccc([N+](=O)[O-])nc3)CC2)cc1 | -36
Cc1ccc(NC(=O)CCCc2nc3ccccc3s2)c(O)c1 | -15.9
COc1cc(C2OC(=O)c3ccccc3S2)cc(OC)c1OC (centres unmarked) | 11.5
CCn1nc(C)c(CN2CCC(n3nccc3NC(=O)c3ccc4c(c3)OCO4)CC2)c1C | -4.09
COc1cc(/C=C/C(=O)O)ccc1O | -1.72
COc1ccccc1CNC(=O)C1CCCN(S(=O)(=O)c2cccs2)C1 (centres unmarked) | 0.808
COC(=O)C1C(=O)/C(=C(/C)N2CCCC2)C(=O)CC1(C)C (centres unmarked) | 3.79
COc1ccc(-c2csc(CCn3nc(C)cc3C)n2)cc1OC | 4.85
CCCCN(CC)CCCNC(=S)Nc1ccc2nc(N3CCN(CC)CC3)cc(C)c2c1 | -4.57
COc1ccc(NS(=O)(=O)c2ccc(-c3coc(C)n3)cc2)c(OC)c1 | 18.1
C(=N\n1cnnc1)/c1ccc2ncccc2c1 | -4.7

Compound | hERG current change (%, negative = inhibition) at 10uM [%]
CCOc1ccc(C(=O)CCC(=O)NNC(=O)c2ccccc2O)cc1 | 14.7
CN(C)S(=O)(=O)N1CCc2ccccc2C1 | 2.94
COc1ccc(Cl)cc1NC(=O)CN(C)C(=O)c1sccc1-c1ccccc1 | 11.2
COc1ccc(OC)c2[nH]c(=O)c(CCNS(=O)(=O)c3ccccc3)cc12 | 1.57
C=C1C(=O)O[C@H]2C1CC[C@@](C)(O)C13C=CC(C)(C21)C1(C3)C(=O)O[C@@H]2C3C(C)=CCC3[C@](C)(O)C[C@H](OC(C)=O)C21 (some centres unmarked) | 2.81
NC(=O)c1ccsc1NC(=O)C1CCN(S(=O)(=O)c2cccs2)CC1 | -52.4
O=C1CCCC/C1=N\Nc1ccc(OCc2ccccc2)cc1 | 5.78
COc1ccc2ccccc2c1/C=N/NC(=O)c1nnn(-c2nonc2N)c1C(C)C | 16.7
CCOC(=O)C1=C(C)N(CCCCCC(=O)O)C(=O)NC1c1ccccc1OC(=O)c1cccs1 (centres unmarked) | -35.8
CCOC(=O)c1ncn2c1C(=O)OC2(C)C | 12.6
C=CCN=Cc1c(C)[nH]n(-c2ccccc2)c1=O | 4.17
O=C(/C=C/c1ccc([N+](=O)[O-])cc1)N1CCN(Cc2ccccc2)CC1 | -66.8
CC1(C)C2CCC1(CS(=O)(=O)NC(CC(=O)O)c1cccc(Br)c1)C(=O)C2 (centres unmarked) | 17.7
COc1cccc(OC)c1C(=O)OCC(=O)NCC(C)C | 24.7
Cc1ccc(SCC(=O)NCC(C)C)cc1 | 9.35
CCCc1ccc(C(C)NC(=S)NCc2ccc(F)cc2)cc1 (centres unmarked) | 18.6
CSCCC(NC(=O)COc1ccccc1)C(=O)OCCOc1ccc(F)cc1 (centres unmarked) | -30.3
Cc1ccc(-n2ncc3c2CC(C)(C)CC3NC(=O)CCc2cccnc2)cc1 (centres unmarked) | -63.9
O=C1c2ccccc2C(=O)N1c1ccc(Br)c2cccnc12 | 19.9

Compound | hERG current change (%, negative = inhibition) at 10uM [%]
O=C(c1cccc(Cl)c1)N1CCN(Cc2ccccc2)CC1 | -8.35
Cc1c(Cl)c([N+](=O)[O-])nn1CC(=O)N1CCCC1 | -4.86
CC(Sc1ccccc1)C(=O)Nc1cccc(N(C)S(C)(=O)=O)c1 (centres unmarked) | 12.9
CCCCCCCCNC(=O)/C(C#N)=C/c1ccccc1[N+](=O)[O-] | -7.82
CCOC(=O)C1=C(O)CSC1=Nc1cccc2ccccc12 | 1.88
COCCNC(=O)C(OC(=O)c1ccco1)c1ccccc1Cl (centres unmarked) | 15.3
CCCCN(CCCNC(=O)c1ccc(CS(=O)(=O)c2ccc(OC)cc2)o1)Cc1ccccc1 | -67.4
N=c1c(C(=O)NCC2CCCO2)cc2c(=O)n3ccccc3nc2n1C1CCCC1 (centres unmarked) | -76.9
COC(=O)c1cccc(NC(=O)c2ccc3c(c2)C(=O)N(C(C)(C)C)C3=O)c1 | 24.4
CCOC(=O)c1ccc(NC(=O)c2ccc3c(c2)C(=O)N(CC2CCCO2)C3=O)cc1 (centres unmarked) | -1.87
CN1CCN(c2ccc(Nc3ccnc4cc(Cl)ccc34)cc2)CC1 | -28.9
CC(=O)N1C(=S)NC(=O)/C1=C1/C(=O)N(CC(=O)Nc2cccc(C)c2)c2ccccc21 | 14.6
Cc1nc(C(=O)N2CCCC(C(=O)c3cccc(OC(C)C)c3)C2)cs1 (centres unmarked) | -4.61
Cc1cc(C)nc(SCC(=O)c2ccc(C)c(C)c2)n1 | 1.66
Cc1c(-c2ncn[nH]2)sc(C#N)c1-c1ccccc1 | 2.45
Cc1nn(C(C)C(=O)NCCCN2CCCCC2C)c(=O)c2c1sc1ccccc12 (centres unmarked) | -5.22
O=c1c2ccccc2nc(/C=C/c2ccccc2)n1-c1ccc(O)cc1 | 13.8
Cc1ccsc1/C=N/NC(=O)c1cccnc1 | 10.8

— paper PMC4336329 (PLoS ONE, 2015)
